Experimental data: ChEMBL document CHEMBL4888484, “Replenishing the malaria drug discovery pipeline: Screening and hit evaluation of the MMV Hit Generation Library 1 (HGL1) against asexual blood stage Plasmodium falciparum ,using a nano luciferase reporter read-out” (2022)
Screen size: about 4,800 compounds; about 420 (8.8%) showed an effect of 50% or more. Some of the results follow.

Each compound was assayed on Plasmodium falciparum (assay: Confirmatory screen in NF54 nanoGlo assay, in single point, at 2uM, 72h). Settings: timepoint 72 hour.
Assay type: functional, Erythrocyte

| SMILES | % Inhibition [%] |
| --- | --- |
| COc1ccc(S(=O)(=O)n2[nH]c(=O)c(CCO)c2C)cc1 | -3 |
| Cn1cc(-c2ccc(F)cc2)c2nc[nH]c(=O)c21 | 3 |
| Cc1ccc(S(=O)(=O)c2c(NS(=O)(=O)c3ccccc3)n(CCc3ccccc3)c3nc4ccccc4nc23)cc1 | 100 |
| COc1cc(-c2nc(-c3ccc(F)cc3)c(-c3ccc(F)cc3)[nH]2)cc2c1OCO2 | 5 |
| CN(C)/C=C/c1c(C#N)c(=O)ncn1Cc1ccccc1 | 2 |
| O=C(C[C@H]1CCN(S(=O)(=O)c2ccc(F)c(F)c2)C1)NCc1ccccc1 | -13 |
| O=C(C[C@H]1CCN(C(=O)c2ccoc2)C1)NC1CC1 | -13 |
| COc1ccc(CCNC(=O)c2cc3n(n2)CCN(Cc2cccc(F)c2)C3=O)cc1OC | 17 |
| C#CCOc1ccc2ccccc2c1[C@@H]1NC(=O)c2cccnc2N1 | 2 |
| O=C(N[C@H](c1ccccc1)C1CCC1)N1CCOC2(CCC2)C1 | 0 |
| Cc1cc[n+]2c(-c3ccccc3)cc(-c3ccccc3)nc2c1 | 62 |
| O=C1c2ccccc2C(=O)N1Cc1cnc(N2CCCCC2)s1 | -5 |
| Cc1cccc(NC(=O)NCCn2nnc3cc(S(=O)(=O)N4CCCC4)ccc32)c1C | -1 |
| C=CCN=C(NCc1nccn1C)NC1CCC(C)CC1 (configuration not stated) | -9 |
| O=C(O)[C@@H]1CCCN1c1ncc(C(F)(F)F)cc1Cl | -3 |
| O=C(Nc1c(S(=O)(=O)c2ccccc2)c2nc3ccccc3nc2n1CCc1ccccc1)c1ccc(Cl)cc1 | 102 |
| CCOc1cc(=O)c(C(=O)N2CCC(C)CC2)nn1-c1cc(OC)cc(OC)c1 | -2 |
| Cc1ccc(C)c(-c2nc(Cn3c(=O)c4c(C)cc(C)nc4n(C)c3=O)c(C)o2)c1 | -2 |
| Cc1nnc(NC(=O)C(C)(C)S(=O)(=O)C2CC2)n1C1CC1 | -3 |
| CC(C)[C@H](NC(=O)NCCc1ncnn1C)c1ccccc1Cl | 4 |
| COc1c(Cl)cc(Cl)cc1CNC(C)C | 4 |
| Cc1cc(CNC(=O)Nc2cnn(-c3ncccc3C#N)c2)n(C)n1 | 1 |
| Oc1nc(N2CCOC3(CCCC3)C2)ncc1F | 51 |
| CN(Cc1ccn(C)n1)C(=O)c1cc(S(=O)(=O)N(C)C)c(Cl)cc1Cl | 2 |
| COC(=O)[C@@H]1C[C@H](O)CCN1C(=O)OC(C)(C)C | -2 |
| CNc1nc(NCc2ccccc2)nc2ccccc12 | 78 |

| SMILES | % Inhibition [%] |
| --- | --- |
| COc1ccc(O)c([C@H]2Nc3ccccc3-n3c(-c4ccc(C)cc4)c4c(=O)n(C)c(=O)n(C)c4c32)c1 | 25 |
| Cc1ccc(S(=O)(=O)N(CC(=O)NC2CCN(C)CC2)c2cccc(Cl)c2)cc1 | -7 |
| O=C(CCc1ccc(F)cc1)Nc1nccc(-c2ccco2)n1 | 1 |
| CN(Cc1ccncc1)Cc1ccc2c(c1)CCO2 | -11 |
| Cc1ccc(-c2ccc(=O)n(CCC(=O)N3CCN(C4CCCCC4)CC3)n2)cc1 | -4 |
| O=C(Cc1cnn(-c2ccccc2)c1)Nc1ccc2[nH]c(=O)[nH]c2c1 | 4 |
| Cc1nn(C)c2c(N3CCOCC3)nc(C3CC3)nc12 | -8 |
| Cn1nccc1/C=C1\CC2C3CCc4cc(O)ccc4C3CCC2(C)C1O (configuration not stated) | 37 |
| CC(=O)c1ccc(N2CCN(C(=O)c3nn[nH]c3Nc3ccc(C)c(C)c3)CC2)cc1 | 2 |
| O=C(Nc1ccccc1OC[C@H]1CCCCO1)N1CCOCC1 | 9 |
| CC1CN(S(=O)(=O)CC2CCOC2)c2ccc(F)cc2O1 (configuration not stated) | -2 |
| O=C(NCCCN1CCCC1=O)c1cn2ccnc(-c3ccccc3)c2n1 | -12 |
| O=C1CCC[C@H](C(=O)Nc2cnn(CC(F)(F)F)c2)N1 | -8 |
| C[C@@H](NC(=O)c1ccccc1F)c1ccccc1 | 6 |
| CN(CC(C)(CO)CO)C(=O)c1coc2ccccc12 | -3 |
| Cc1cc2nc(C)c(=O)n(Cc3ccc(C(=O)NCCCN4CCCC[C@@H]4C)cc3)c2cc1C | 1 |
| COc1ccc(N(Cc2ccc(F)cc2)S(=O)(=O)c2ccc3nncn3c2)cc1 | -13 |
| Cc1cc(Cl)ccc1S(=O)(=O)N1CCc2nnc([C@H]3CCN(C(C)C)C3)n2CC1 | 1 |
| O=C(NCc1cccnc1)c1cnn2c3c(cnc12)CCCC3 | -4 |
| Cc1cc(N)nc(Nc2ccc(Nc3ccccc3)cc2)n1 | 87 |
| CCn1c(=O)c(N2CCC[C@H](C(=O)NCCc3c[nH]c4ccccc34)C2)nc2ccccc21 | -2 |
| CCOC1CC(NC2CC(c3ccc(F)cc3)C2)C12CCC2 (configuration not stated) | 67 |
| CCOc1ccc(CNC(=O)c2sccc2NC(=O)c2cnccn2)cc1 | -13 |
| Clc1ccc(-c2noc(C3CNC3)n2)cc1 | 21 |
| CCOCCC1(CN=C(N)N2CCCCC2)CCCC1 | 0 |
| O=c1[nH]nc(-c2ccc3c(c2)CCC3)c2ccccc12 | -7 |

| SMILES | % Inhibition [%] |
| --- | --- |
| Cc1noc(C)c1CNc1cc(S(=O)(=O)N2CCCCC2)ccc1Oc1ccccc1 | 1 |
| CCCCC(C(=O)Nc1cc(C)on1)N1CCN(C)CC1C (configuration not stated) | -7 |
| c1ccc(-c2ccccc2NCn2nnc3ccccc32)cc1 | -4 |
| Cc1ccc(NC(=O)c2cn(CC3(O)CCN(Cc4ccccc4)CC3)nn2)c(C)c1 | 1 |
| CCOc1cc(CNc2cccc3ccccc23)cc(Br)c1OCC(=O)NC(C)(C)C | 89 |
| O=C(NCC(F)(F)F)Nc1ccc(CO)cc1 | -1 |
| CCOc1c(CNC(C)(C)CC(C)(C)C)cccc1OC | -1 |
| Cc1cccc(C)c1OCC(C)NC(=O)N1CCCC(CS(C)(=O)=O)C1 (configuration not stated) | -6 |
| CC(C)(C)OC(=O)N1CC(NC(=O)C2CC2c2ccccc2C(F)(F)F)C1 (configuration not stated) | -16 |
| Cc1cc(OCc2ccc(C(=O)Nc3ncn(Cc4c(F)cccc4Cl)n3)o2)ccc1Cl | 0 |
| CCc1ccccc1Nc1nc(C)c(C(=O)NCc2cccnc2)s1 | -22 |
| COc1ccc(CCNC(=O)CCCC(=O)NCc2ccccc2)cc1OC | -14 |
| Cc1nc(CCNC(=O)Cc2nn(C)c3ccccc23)c(C)o1 | 1 |
| CCC(=O)N1CCC(Nc2cccc(-c3nc(C4CC4)n[nH]3)c2)CC1 | -14 |
| Cc1ccc(-c2nc3ncccn3c2Nc2ccc3c(c2)OCCO3)o1 | -8 |
| O=C(NCc1ccco1)c1nc(-c2ccncc2)cs1 | 4 |
| COc1ccc(C2=NN(C(C#N)c3cccc(OC)c3O)C(c3ccccc3)C2)cc1 (configuration not stated) | 4 |
| O=C(CN1CCOCC1)Nc1ccc(N2CCOCC2)c(F)c1 | -16 |
| C[C@@H](C(=O)N1CCN(C/C=C/c2ccccc2)CC1)N1Cc2ccccc2C1=O | -4 |
| CN(C)C(=O)NCC1(NC(=O)N(C)C)CCC1 | -3 |
| CN(C)S(=O)(=O)N(CCN1CCCC1)[C@H]1CCN(C(=O)CCC2CCCC2)C1 | 6 |
| O=S1(=O)CC[C@H](NS(=O)(=O)c2ccc3c(c2)OCCO3)C1 | -8 |
| CCOC(=O)c1c(CN(C)C)n(-c2ccc(OC)cc2)c2ccc(Oc3nccc(Nc4ccc(C)cc4)c3C#N)cc12 | -4 |
| COC(=O)c1nc(NC(=O)C2(C)CCCC2)sc1C(C)C | -12 |
| Cc1cc(=O)n2ncc(C(=O)NCc3cc(F)cc(F)c3)c2[nH]1 | -13 |
| CC(C)(C)OC(=O)NC1CCC(N2C(=O)CCC2=O)CC1 (configuration not stated) | -4 |

| SMILES | % Inhibition [%] |
| --- | --- |
| COc1ccc(F)c(NC(=O)N(CCO)C(C)C)c1 | 5 |
| COC1(C)CC(NC(=O)C(C(C)C)N2CCCS2(=O)=O)C1(C)C (configuration not stated) | -9 |
| Cc1cc(NC(=O)CS(=O)(=O)Cc2c(C)noc2C)no1 | -11 |
| CC(C)c1cccc(CN2C(=O)N[C@]3(CC(C)(C)OC3(C)C)C2=O)n1 | -6 |
| O=C(Cn1nnc2ccccc21)N(Cc1cccnc1)C1(C(=O)Nc2ccc3c(c2)OCO3)CCCCC1 | 4 |
| COc1ccccc1OCc1nn2c([C@H]3CCCN(S(C)(=O)=O)C3)nnc2s1 | -3 |
| Cc1cc(C)c2ccc3ccccc3c2n1 | -4 |
| Cn1c(N)c(S(=O)(=O)N2CCN(c3ccccc3Cl)CC2)c(=O)n(C)c1=O | 61 |
| Cc1cc(S(=O)(=O)N(C)Cc2ccco2)cc2c1NC(=O)C2(C)C | -2 |
| Cc1cc(C)nc(N[C@H](c2ccc(F)cc2)c2cc(C)sc2NC(=O)c2ccccc2)n1 | 0 |
| O=C(C[C@@H]1CCNC[C@@H]1Cc1cc(COc2ccccc2)on1)NCc1ccc(F)cc1 | -2 |
| CCC(=O)N1CCN(S(=O)(=O)c2ccc(C)cc2)[C@H]1C | -2 |
| CC(C)Cn1c(=O)c2sccc2n(CC(=O)N2CCCC2)c1=O | 6 |
| CCN(C(C)=O)c1ccc(Cl)cc1F | -13 |
| Cc1n(CC(=O)c2ccccc2)c2ccccc2[n+]1CC(=O)c1ccccc1 | 68 |
| COC(=O)N1CC[C@H](NC(=O)OC(C)(C)C)C1 | 0 |
| Cc1ccc(CN2CCN(CC(=O)NC3CCCCCCC3)C2=O)cc1 | -8 |
| O=c1ccn2c(n1)O[C@H]1[C@H](OC3CCCCO3)[C@@H](COC3CCCCO3)O[C@H]12 (some centres not stated) | -15 |
| CN(C)CCNCc1ccc(Cl)c(Cl)c1 | -11 |
| CC(=O)N1CC[C@H](CC(=O)N(C)Cc2ccccc2)C1 | -3 |
| CC(C)C(=O)NC1CCN(c2nc(Cc3ccc(F)cc3)no2)CC1 | -3 |
| Cc1csc(C(C)(C)NC(=O)NCCC2=CCCC2)n1 | -3 |
| CCOc1ccc(NC(=O)N(Cc2cn(CC)c3ccccc23)[C@@H](C)CC)cc1 | -14 |
| c1ccc(CC2CCN(c3[nH]cnc4ncnc3-4)CC2)cc1 | 4 |
